Experimental findings from PMC4336329 (PLoS ONE, 2015) are described below.

Among all 310,000 compounds or so, about 14,000 (4.5%) showed an effect of 50% or more. The effect is printed as a negative number. The list shows a part of the results.
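Further: peak tail current of the secondary pulse compared with the same well before compound.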

human ether-à-go-go-related gene (hERG) potassium channel, sequence (Q12809 whole entry, looked up): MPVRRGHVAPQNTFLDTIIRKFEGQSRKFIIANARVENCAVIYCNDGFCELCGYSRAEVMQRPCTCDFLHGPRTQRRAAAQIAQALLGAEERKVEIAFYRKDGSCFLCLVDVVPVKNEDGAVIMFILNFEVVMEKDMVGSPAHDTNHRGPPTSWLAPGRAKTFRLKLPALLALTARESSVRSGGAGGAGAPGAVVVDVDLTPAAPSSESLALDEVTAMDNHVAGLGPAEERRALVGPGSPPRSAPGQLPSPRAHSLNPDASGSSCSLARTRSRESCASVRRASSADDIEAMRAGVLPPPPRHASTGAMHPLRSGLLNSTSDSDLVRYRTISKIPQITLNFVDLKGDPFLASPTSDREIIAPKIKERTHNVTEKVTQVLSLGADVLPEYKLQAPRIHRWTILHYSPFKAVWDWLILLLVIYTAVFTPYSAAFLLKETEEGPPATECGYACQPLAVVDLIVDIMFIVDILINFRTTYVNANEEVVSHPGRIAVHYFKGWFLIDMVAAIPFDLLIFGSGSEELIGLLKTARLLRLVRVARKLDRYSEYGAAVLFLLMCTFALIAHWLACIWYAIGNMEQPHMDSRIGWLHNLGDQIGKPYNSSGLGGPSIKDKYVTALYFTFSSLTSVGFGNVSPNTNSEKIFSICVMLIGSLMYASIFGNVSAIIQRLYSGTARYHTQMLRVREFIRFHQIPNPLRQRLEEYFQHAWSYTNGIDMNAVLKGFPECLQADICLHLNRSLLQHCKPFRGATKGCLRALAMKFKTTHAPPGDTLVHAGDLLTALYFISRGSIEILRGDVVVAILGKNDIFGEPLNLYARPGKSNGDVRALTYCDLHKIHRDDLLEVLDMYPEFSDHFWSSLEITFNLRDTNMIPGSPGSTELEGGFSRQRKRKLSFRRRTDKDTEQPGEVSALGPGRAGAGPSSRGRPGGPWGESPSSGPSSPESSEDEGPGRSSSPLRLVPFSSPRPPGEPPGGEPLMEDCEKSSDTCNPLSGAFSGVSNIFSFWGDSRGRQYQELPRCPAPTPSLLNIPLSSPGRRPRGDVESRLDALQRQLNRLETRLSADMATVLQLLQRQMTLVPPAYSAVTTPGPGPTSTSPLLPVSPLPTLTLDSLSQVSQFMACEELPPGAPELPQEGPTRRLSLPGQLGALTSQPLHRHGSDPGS

The experiment concerns the target human ether-à-go-go-related gene (hERG) potassium channel (human, UniProt Q12809). Kind of experiment: primary screen, population patch clamp on CHO cells stably expressing hERG.
`COc1ccc(/C=C/C(=O)OCC(=O)Nc2ccc(S(N)(=O)=O)cc2)cc1OC`: the “hERG current change (%, negative = inhibition) at 10uM” value is reported as -2.78%. Next, `CCOc1ccc(S(=O)(=O)N2CN3CCN(C3)C2)cc1`: 2.12%. Next, `CN1CCN(S(=O)(=O)c2cccc(C(=O)Nc3sc4c(c3-c3nc5ccccc5[nH]3)CCCC4)c2)CC1`: 3.33%; `CCOC(=O)c1ccccc1NC(=O)CSc1nnc(Cc2cccn2C)n1-c1ccc(C)cc1`: -14%. For `Cc1cccc(C(=O)OCc2cncs2)c1`, the “hERG current change (%, negative = inhibition) at 10uM” value worked out at 6.94%.

For `CCOC(=O)c1c(C)[nH]c(N=Nc2ccccc2Cl)c1C`, the “hERG current change (%, negative = inhibition) at 10uM” value came to 0.965%. Under `COc1cc(S(=O)(=O)N2CCN(C)CC2)c(OC)cc1Br` stands -4.94%. Under `Cc1ccccc1NC(=O)C(=O)NC(C)CCc1ccccc1` (stereo not drawn) stands 13.1%; under `Cc1ccc(N2CC(C(=O)OCC(=O)Nc3ccccc3C)CC2=O)cc1` (stereo not drawn), 8.97%. Turning to `CC1CN(c2nnnn2-c2ccccc2)CC(C)O1` (stereo not drawn), the “hERG current change (%, negative = inhibition) at 10uM” value is given as -23.1%. Turning to `COC(=O)c1cccc(-c2ccc(C(c3c(C)[nH][nH]c3=O)c3c(C)[nH][nH]c3=O)o2)c1`, the “hERG current change (%, negative = inhibition) at 10uM” value is recorded as 8.18%.

For the compound `COc1ccccc1C1/C(=C(/O)c2ccccc2)C(=O)C(=O)N1CC(C)O` (stereo not drawn), the “hERG current change (%, negative = inhibition) at 10uM” value is 5.05%.

In the case of `Cc1c(Cl)cccc1-c1ccc(/C=N/n2cnnc2)o1`, the “hERG current change (%, negative = inhibition) at 10uM” value was -12.7%. Turning to `Cc1cc(C(=O)NCc2ccccc2F)cs1`, the “hERG current change (%, negative = inhibition) at 10uM” value was -0.387%. Under `O=C(CSc1nc(=O)n(CCCN2CCOCC2)c2c1CCCC2)Nc1ccc(F)cc1` stands -43.7%. Under `COCCN1CCN(C(=O)C2CCC(=O)N(Cc3ccccc3OC)C2)CC1` (stereo not drawn) stands 8.85%; under `Clc1ccc2nc(CSc3ncn[nH]3)cn2c1`, 2.26%; under `O=C(COC(=O)c1ccc(Cl)nc1)NNC(=O)c1ccc(Cl)cc1`, 12.5%.

`CC(C)=CCc1cc(-c2oc3cc(O)cc(O)c3c(=O)c2O)ccc1O`: the “hERG current change (%, negative = inhibition) at 10uM” value amounted to 9.33%. Under `CC(=O)Nc1cc([N+](=O)[O-])ccc1N1CCOCC1` stands -7.99%; under `O=c1[nH]c(CN2CCN(S(=O)(=O)/C=C/c3ccccc3)CC2)nc2cc(Cl)ccc12`, -65.8%.

Consider `O=[N+]([O-])c1ccc(Cc2nnc(-c3ccc(F)cc3)o2)cc1`, for which the “hERG current change (%, negative = inhibition) at 10uM” value was -57.2%. With `CCCCNc1ncnc2c1cnn2-c1ccc(Cl)cc1`, the “hERG current change (%, negative = inhibition) at 10uM” value is reported as 14.6%. Under `C=CCNc1ncnc2c1cnn2-c1ccc(C)cc1C` stands 3.76%.

As to `CCOc1ncccc1C(=O)OCC(=O)c1cc(C)n(Cc2ccco2)c1C`, the “hERG current change (%, negative = inhibition) at 10uM” value is -7.34%. Turning to `CCOc1ccc(-n2c(=O)c3ccccc3c3ccccc3c2=O)cc1`, the “hERG current change (%, negative = inhibition) at 10uM” value is reported as 17.8%. Under `CCCc1cc(=O)oc2cc(OC(C)C(=O)NCC3CCC(C(=O)O)CC3)c(Cl)cc12` (stereo not drawn) stands 10.1%; under `Cc1ccnc(NC(=O)CCNC(=O)c2ccccc2Cl)c1`, 5.8%. Under `CCCCN(C(=O)c1cc2ccccc2o1)c1c(N)n(CCCC)c(=O)[nH]c1=O` stands -10.2%. Next, `COC(=O)C(NS(=O)(=O)c1ccccc1Br)C(C)C` (stereo not drawn): 5.6%. Consider `C[C@@H]1C=C(C(=O)N2CCN(Cc3ccc4c(c3)OCO4)CC2)O[C@H](OCCCCO)C1`, for which the “hERG current change (%, negative = inhibition) at 10uM” value is given as 4.01%. Under `CC1CCN(C(=O)C2CCN(c3ncnc4c3nc3n4CCCCC3)CC2)CC1` stands -20.6%; under `CC(C)c1nc(C(=O)N2CCCC(N3CCN(c4cccc(Cl)c4)CC3)C2)cs1` (stereo not drawn), -36.4%. Under `O=C(CBr)N1CCc2ccccc2C(c2ccccc2)C1` (stereo not drawn) stands 3.93%; under `O=C(NCc1n[nH]c(=S)n1-c1ccccc1Cl)c1ccc(S(=O)(=O)N2CCCCC2)cc1`, 13.5%; under `CC(=O)NC1=NN(C(C)=O)C(c2cccs2)S1` (stereo not drawn), 20%. Consider `Cc1ccc(CNC(=O)C(=O)NCC2CCCO2)cc1` (stereo not drawn), for which the “hERG current change (%, negative = inhibition) at 10uM” value is reported as 7.89%. For `CCN(CC)C(=O)c1ccc(-c2cccs2)s1`, the “hERG current change (%, negative = inhibition) at 10uM” value worked out at 14.2%. Under `O=CC(Cl)P(=O)(N1CCOCC1)N1CCOCC1` (stereo not drawn) stands 5.11%. Next, `COc1ccc(C2/C(=C(/O)c3ccc4c(c3)CC(C)O4)C(=O)C(=O)N2Cc2ccncc2)cc1` (stereo not drawn): 5.97%; `O=c1c2nccnc2[nH]c(=S)n1Cc1ccccc1`: 6.76%; `Cc1ccccc1C(=O)N(Cc1cccs1)C1CCS(=O)(=O)C1` (stereo not drawn): 31%. Turning to `COc1ccc(/C=C(\NC(=O)c2ccccc2)C(=O)NCc2ccco2)cc1`, the “hERG current change (%, negative = inhibition) at 10uM” value is on record as 11.9%. Under `Clc1cc(-c2ccccc2)nc(-c2ccccc2)n1` stands -5.9%; under `COc1ccc(S(=O)(=O)N2CCN(Cc3ccc4c(c3)OCO4)CC2)cc1`, -42.6%.
